Measured values from publication PMC4336329 (PLoS ONE, 2015).
Hit rate of the full screen: of about 310,000 compounds, about 2,200 (0.71%) showed an effect of 50% or more. Effects have a minus sign here. The list shows a part of the results.

Biological target: human ether-à-go-go-related gene (hERG) potassium channel (human, UniProt Q12809)
Experiment: primary screen, population patch clamp on CHO cells stably expressing hERG

Chain of human ether-à-go-go-related gene (hERG) potassium channel (Q12809 whole entry, looked up): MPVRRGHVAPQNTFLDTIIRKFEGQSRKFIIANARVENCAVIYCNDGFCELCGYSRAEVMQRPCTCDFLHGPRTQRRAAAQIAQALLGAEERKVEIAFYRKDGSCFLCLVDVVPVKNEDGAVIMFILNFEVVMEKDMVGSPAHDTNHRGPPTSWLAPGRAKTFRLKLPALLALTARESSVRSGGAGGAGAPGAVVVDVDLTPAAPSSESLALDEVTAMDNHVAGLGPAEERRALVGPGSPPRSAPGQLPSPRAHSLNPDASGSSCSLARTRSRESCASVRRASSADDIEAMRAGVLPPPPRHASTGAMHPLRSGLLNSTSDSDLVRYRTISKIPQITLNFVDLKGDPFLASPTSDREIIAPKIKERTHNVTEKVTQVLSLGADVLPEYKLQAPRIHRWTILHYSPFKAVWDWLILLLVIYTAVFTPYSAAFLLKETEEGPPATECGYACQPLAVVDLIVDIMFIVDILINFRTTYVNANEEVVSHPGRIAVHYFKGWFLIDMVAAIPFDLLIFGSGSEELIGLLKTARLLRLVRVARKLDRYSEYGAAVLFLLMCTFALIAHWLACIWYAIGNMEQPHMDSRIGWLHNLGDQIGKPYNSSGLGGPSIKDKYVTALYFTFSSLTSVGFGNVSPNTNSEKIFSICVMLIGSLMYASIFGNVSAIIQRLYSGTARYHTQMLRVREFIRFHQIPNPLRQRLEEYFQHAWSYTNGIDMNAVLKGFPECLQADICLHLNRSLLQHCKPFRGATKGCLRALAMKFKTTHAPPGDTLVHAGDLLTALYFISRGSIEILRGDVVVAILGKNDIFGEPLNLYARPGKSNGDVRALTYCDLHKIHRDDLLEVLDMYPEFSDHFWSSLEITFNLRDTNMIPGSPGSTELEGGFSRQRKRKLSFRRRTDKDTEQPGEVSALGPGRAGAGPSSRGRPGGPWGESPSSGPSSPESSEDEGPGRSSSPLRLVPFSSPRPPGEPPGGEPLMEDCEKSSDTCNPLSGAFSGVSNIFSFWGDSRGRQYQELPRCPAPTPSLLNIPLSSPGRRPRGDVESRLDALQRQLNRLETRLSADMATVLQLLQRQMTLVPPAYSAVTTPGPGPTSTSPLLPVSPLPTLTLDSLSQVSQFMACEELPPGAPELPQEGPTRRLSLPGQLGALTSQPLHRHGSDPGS

Structure (SMILES) | hERG current change (%, negative = inhibition) at 1uM [%]
N#C/C(=C/c1ccncc1)c1nc2ccccc2c(=O)[nH]1 | 13
CCN(CC)S(=O)(=O)c1ccc(N2CCc3ccccc3C2)nc1 | 16
Cc1ccc2sc(NNC(=O)c3ccc4c(c3)OCCO4)nc2c1C | 8.2
COC(=O)c1c(NC(=O)COC(=O)c2ccc(NC(=O)CC#N)cc2)sc2c1CCCCC2 | 12
COc1cccc(N2C(=O)N(c3ccccc3)C3CS(=O)(=O)CC32)c1 (stereo not shown) | 3.15
O=C(OCC(=O)c1ccc(Cl)cc1Cl)c1cnccn1 | 8.89
Cc1ccc(S(=O)(=O)NCCCC(=O)O)cc1 | 12.3
Cc1cc(C)nc(SCC(=O)N/N=C/c2cccs2)n1 | 7.39
CCCN(CCC)S(=O)(=O)c1ccc(C(=O)Nc2c(C)n(C)n(-c3ccccc3)c2=O)cc1 | 2.98
C[C@H](NC(=O)c1ccc(Cl)cc1)C(=O)NNC(=O)c1cccs1 | 27.7
OCCN1CCN(Cc2cc(Cl)c3cccnc3c2O)CC1 | 18.5
COc1ccccc1C(=O)Nc1nc(-c2ccc3c(c2)OCCO3)cs1 | 10.9
COc1cc(NC(=O)C2CCCN(S(=O)(=O)c3cnc[nH]3)C2)cc(OC)c1 (stereo not shown) | 8.54
CC(C)O.Cc1ccc(-c2cc(C(=O)O)n(-c3ccc(S(N)(=O)=O)cc3)n2)cc1 | 11.8
COc1ccc(CCNCc2c(-c3ccccc3)n(C)c3ccccc23)cc1.O=C(O)C(=O)O | 6.8
COc1ccc(Cl)cc1S(=O)(=O)NCc1ccncc1 | 15.2
O=C(Nc1ccccc1F)NC1CCCCCCC1 | 1.1
OCC(CO)(CO)N=Cc1c(O)ccc2ccccc12 | 1.91
CCOC(=O)c1cnc2ccc(C(=O)OC)cc2c1NCCCN1CCOCC1 | -25.5
O=C(CN1C(=O)NC2(CCc3ccccc32)C1=O)c1ccc(Br)cc1 (stereo not shown) | 9.51
O=C(CN1C(=O)/C(=C2\SC(=S)N(C3CCS(=O)(=O)C3)C2=O)c2ccccc21)Nc1ccccc1 (stereo not shown) | 3.09
CCOC(=O)c1ccc(NC(=O)Cn2ncc(Cl)c(Cl)c2=O)cc1 | 2.74
Cc1cc(C)n(C(=O)c2ccc([N+](=O)[O-])cc2N)n1 | 23.1

Structure (SMILES) | hERG current change (%, negative = inhibition) at 1uM [%]
Cc1ccccc1N1CC(C(=O)Nc2ccc(S(=O)(=O)N3CCCCC3)cc2)CC1=O (stereo not shown) | 15.9
CCn1c(SCC(=O)NCC2CCCO2)nnc1-c1ccccc1 (stereo not shown) | 4.6
Cc1cccc(C)c1NC(=O)CN(C)C(C)C(=O)Nc1ccccc1-c1ccccc1 (stereo not shown) | 11.9
COc1cccc2c1CCc1c-2nc2ccccc2c1C(=O)O | 6.53
CC(NC(=O)COC(=O)/C=C/c1ccc2c(c1)OCO2)c1ccccc1 (stereo not shown) | -6.44
CN1CCN(C(=O)c2cc3sccc3n2CC(=O)c2ccccc2)CC1 | -2.93
Cc1cc(C(=O)NNC(=O)C2CCCC2)c(C)o1 | 15.7
CC(=O)Nc1ccc(S(=O)(=O)NCc2cn3ccsc3n2)cc1 | 1.26
CCCCCCc1c(C)c2ccc(OCC(=O)N[C@@H](Cc3ccccc3)C(=O)O)cc2oc1=O | 14.3
O=C(CSCc1c(Cl)cccc1Cl)Nc1ccccc1C(=O)N1CCOCC1 | 2.48
CCCc1cc(=O)[nH]c(SCC(=O)NC(=O)OCC)n1 | 16.9
Cc1ccc(NC(=O)c2ccc(OC(F)F)cc2)cc1S(=O)(=O)N(C)C | 9.55
CC(C)c1ccc(N(C(=O)c2ccco2)C(C(=O)NC2CCCC2)c2cccnc2)cc1 (stereo not shown) | 3.2
CCOC(=O)c1c(NC(=O)CSc2nnc3c(Cl)cc(Cl)cn23)sc2c1CCC2 | -0.828
O=C1C=C(c2ccc(CO)cc2)C[C@@H](c2ccc3c(c2)OCO3)C1 | 6.43
COc1ccc(CN2C(=O)c3ccccc3C2=O)cc1C(=O)Nc1ccc(C)cc1C | 4.18
Cc1cc(C(=O)NC(C)CCC(C)C)c2ccccc2n1 (stereo not shown) | 25.5
O=C(Nc1ccc(OC(F)(F)F)cc1)NC1CCC(Oc2ccc(C(=O)O)cc2)CC1 (stereo not shown) | 11.4
Cc1ccc(C(=O)NCC(=O)OCC(=O)/C=C2\N(C)c3ccccc3C2(C)C)cc1C | -0.669
CN1CCc2ccccc2C1C1CCNCC1 (stereo not shown) | 10.8
COc1ccc(Br)cc1/C=C/C(=O)NCC(=O)O | 16.4
O=C1CN=C(c2ccc(F)cc2)c2oc3ccccc3c2N1 | 9.77
COCC(=O)N1CCc2ccc(NC(=O)c3ccccc3Cl)cc2C1 | 22.7

Structure (SMILES) | hERG current change (%, negative = inhibition) at 1uM [%]
Cc1ccc2c(c1)N(CC(=O)NC1CCCCCC1)C(=O)c1cccnc1O2 | 4.26
O=C(c1cc(-c2ccccc2)on1)N1CCc2ccccc2C1 | 14
Cc1ccc(-n2c(C)nn(Cc3ccc([N+](=O)[O-])cc3)c2=O)cc1 | 3.39
CC1CC(C)CN(C(=O)c2cc3ccccc3o2)C1 (stereo not shown) | 9.02
NNC(=O)c1ccc(COCC(F)(F)C(F)F)cc1 | 15.2
COc1ccc(C)cc1S(=O)(=O)N1CCN(C/C=C/c2ccccc2)CC1 | 6.03
Cc1ccc(NC(=O)C2CCCN2S(=O)(=O)c2ccc(F)cc2)c(C)c1 (stereo not shown) | 5.17
Cc1csc(NC(=O)C(C)Oc2ccc(Br)cc2)n1 (stereo not shown) | 2.19
CCOC(=O)CCCCCN(Cc1ccccc1)S(=O)(=O)c1ccc([N+](=O)[O-])cc1 | 6.35
CCCc1cc(C(=O)Nc2cc(Cl)ccc2O)no1 | 9.85
CCC(C)Sc1nc2c(cnn2-c2ccccc2)c(=O)[nH]1 (stereo not shown) | -3.47
O=C(CSc1ncc(C(F)(F)F)cc1Cl)NCC1CCCO1 (stereo not shown) | 7.28
CCCNC(=O)Cn1nc(C(F)(F)F)cc1C | -5.38
O=C(CNc1ccccc1)N/N=C/c1cc([N+](=O)[O-])ccc1N1CCCC1 | 1.72
CC(=O)N1CCN(C(=O)COC(=O)COc2ccc(C#N)cc2)CC1 | 12
CCCCC(=O)Nc1ccc(F)c(Cl)c1 | 4.13
O=C(O)CCCC(=O)Nc1ccc(OCc2nc3ccccc3s2)cc1 | 10.4
CCOCCn1c(=O)c2c(nc3n2CCCN3CCc2ccccc2)n(C)c1=O | -15.2
CCOC(=O)c1c(C)[nH]c(NC(=O)NNC(=O)c2ccc(OC)cc2)c1C | 4.57
CCOC(=O)N1CCN(c2nc(-c3cccs3)cc(C(F)(F)F)n2)CC1 | 22.8
O=C(N/N=C\C1C(=O)NC(=S)N(c2ccccc2)C1=O)c1ccc(O)cc1 (stereo not shown) | 4.91
CCOc1ccccc1CNC(=O)c1cc2occc2n1C | 13
CC(=O)/C(=C\N(C)C)Sc1ccc(Cl)cc1 | 6.14

Structure (SMILES) | hERG current change (%, negative = inhibition) at 1uM [%]
Clc1cccc(N2CCN(c3nnnn3-c3ccccc3)CC2)c1 | 2.33
Cc1ccc(NC(=S)Nc2ccc3[nH]c(=O)[nH]c3c2)cc1 | 7.95
CCOC(=O)C1CCN(CC(=O)N2CCc3ccccc32)CC1 | 4.4
NS(=O)(=O)c1ccc(N/N=C/c2ccccc2C(=O)O)c([N+](=O)[O-])c1 | 1.32
CCSc1nnc(C)c2ccccc12 | 18.6
CCc1nc(CNC(=O)C2CCC(=O)N(Cc3cccc(OC)c3)C2)no1 (stereo not shown) | 10.7
COc1cc2c(cc1OC)CN(CCC(=O)c1ccc(Br)cc1)CC2 | -25.2
CCOc1ccc(NC(=O)C2CCN(C(=O)NC3CCCCC3)CC2)cc1 | 14.3
CC(C)C(NC(=O)c1ccccc1NC(=O)c1ccco1)C(=O)O (stereo not shown) | -4.22
Cc1onc(-c2ccccc2)c1C(=O)N1CCN(S(=O)(=O)c2ccc3c(c2)OCCO3)CC1 | -4.03
O=C(CN1CCOCC1)c1cccc2ccccc12.O=C(O)C(=O)O | 6.74
CC(C)Nc1ccccc1 | 8
COC(=O)c1ccn(CC(=O)NC2CCCCC2)n1 | 12
O=C(NCCN1CCOCC1)c1cccc(S(=O)(=O)N2CCCC2)c1 | 9.82
O=C(O)COCC(=O)N1CCN(C2c3ccccc3-c3ccccc32)CC1 | 12.4
CCOc1ccc(S(=O)(=O)N2CCOCC2)cc1[N+](=O)[O-] | -8.15
Cc1nc2cc(-c3ccccc3)sc2c(=O)n1N | 11.5
CC(=O)c1cccc(NC(=S)NCc2ccccc2)c1 | 15.3
COc1cc2c(c(OC)c1OC)-c1ccc(NC(=O)c3ccc(F)cc3)c(=O)cc1[C@@H](NC(C)=O)CC2 | 8.22
CCOc1ccc(/C=N/NC(=O)C(=O)NCc2ccco2)cc1 | 5.5
CCOC(=O)N1CCN(C(=O)CSc2nc3c(c(=O)n2-c2ccccc2OC)SCC3)CC1 | 1.84
O=C(Oc1cccc(NC(=O)c2ccco2)c1)c1cccc(S(=O)(=O)N2CCCCC2)c1 | 9.46
